Assay results as given in PMC12820563.
The list shows a part of the results. The list includes weakly bound sequences.

These sequences were tested against T1, MBP-FoxP3dN (UniProt Q99JB6) (assay: PD-seq (MBP pull-down with sequencing)). Details: 20 mM Tris-HCl pH 7.5, 100 mM NaCl, 1.5 mM MgCl2, 0.4 uM protein, 0.1 uM dsDNA library, 30 min, room temperature, amylose pull-down; high values mean tight binding; double strand, one strand shown.
T1 sequence: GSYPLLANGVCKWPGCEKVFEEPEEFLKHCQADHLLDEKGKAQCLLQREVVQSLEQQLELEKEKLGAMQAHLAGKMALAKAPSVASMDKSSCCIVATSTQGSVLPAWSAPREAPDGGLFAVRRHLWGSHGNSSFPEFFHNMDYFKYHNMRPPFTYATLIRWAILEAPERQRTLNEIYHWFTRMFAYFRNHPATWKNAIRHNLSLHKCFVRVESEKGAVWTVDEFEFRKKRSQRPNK

| Sequence | binding signal (RPM ratio (pull-down/input)) |
| --- | --- |
| GATGATTGTTCTCCCAGCTGATGAATTTATCTTCTCGAGTAAACAAATTTTCCTAATCTTTCTGTTCAAGCGCCATCTAC | 0.765 |
| GATGATTGTTCTCCCAGCTGATGAATTGAATTAGTCGAGTAAACAAATTTTCCTAATCTTTCTGTTCAAGCGCCATCTAC | 0.767 |
| GATGATTGTTCTCCCAGCTGATGAATTACATGTATCGAGTAAACAAATTTTCCTAATCTTTCTGTTCAAGCGCCATCTAC | 1.16 |
| GATGATTGTTCTCCCAGCTGATGAATTTTGATGGTCGAGTAAACAAATTTTCCTAATCTTTCTGTTCAAGCGCCATCTAC | 1.51 |
| GATGATTGTTCTCCCAGCTGATGAATTTGTTGCTTCGAGTAAACAAATTTTCCTAATCTTTCTGTTCAAGCGCCATCTAC | 6.86 |
| GATGATTGTTCTCCCAGCTGATGAATTACTCTAATCGAGTAAACAAATTTTCCTAATCTTTCTGTTCAAGCGCCATCTAC | 0.269 |
| GATGATTGTTCTCCCAGCTGATGAATTGGCCAATTCGAGTAAACAAATTTTCCTAATCTTTCTGTTCAAGCGCCATCTAC | 0.309 |
| GATGATTGTTCTCCCAGCTGATGAATTGACCGGATCGAGTAAACAAATTTTCCTAATCTTTCTGTTCAAGCGCCATCTAC | 0.211 |
| GATGATTGTTCTCCCAGCTGATGAATTGGCTCTATCGAGTAAACAAATTTTCCTAATCTTTCTGTTCAAGCGCCATCTAC | 0.377 |
| GATGATTGTTCTCCCAGCTGATGAATTAAACTCGTCGAGTAAACAAATTTTCCTAATCTTTCTGTTCAAGCGCCATCTAC | 0.319 |
| GATGATTGTTCTCCCAGCTGATGAATTGGGTTAGTCGAGTAAACAAATTTTCCTAATCTTTCTGTTCAAGCGCCATCTAC | 0.756 |
| GATGATTGTTCTCCCAGCTGATGAATTCTTACATTCGAGTAAACAAATTTTCCTAATCTTTCTGTTCAAGCGCCATCTAC | 0.346 |
| GATGATTGTTCTCCCAGCTGATGAATTGATTACATCGAGTAAACAAATTTTCCTAATCTTTCTGTTCAAGCGCCATCTAC | 1.48 |
| GATGATTGTTCTCCCAGCTGATGAATTCCTGTTTTCGAGTAAACAAATTTTCCTAATCTTTCTGTTCAAGCGCCATCTAC | 0.929 |
| GATGATTGTTCTCCCAGCTGATGAATTACAGATCTCGAGTAAACAAATTTTCCTAATCTTTCTGTTCAAGCGCCATCTAC | 0.418 |
| GATGATTGTTCTCCCAGCTGATGAATTGGATTTATCGAGTAAACAAATTTTCCTAATCTTTCTGTTCAAGCGCCATCTAC | 1.47 |
| GATGATTGTTCTCCCAGCTGATGAATTAACTCATTCGAGTAAACAAATTTTCCTAATCTTTCTGTTCAAGCGCCATCTAC | 0.384 |
| GATGATTGTTCTCCCAGCTGATGAATTGCGCGGTTCGAGTAAACAAATTTTCCTAATCTTTCTGTTCAAGCGCCATCTAC | 1.15 |
| GATGATTGTTCTCCCAGCTGATGAATTTCCCGACTCGAGTAAACAAATTTTCCTAATCTTTCTGTTCAAGCGCCATCTAC | 0.21 |
| GATGATTGTTCTCCCAGCTGATGAATTAGTCTGTTCGAGTAAACAAATTTTCCTAATCTTTCTGTTCAAGCGCCATCTAC | 0.826 |

| Sequence | binding signal (RPM ratio (pull-down/input)) |
| --- | --- |
| GATGATTGTTCTCCCAGCTGATGAATTGCTGTGATCGAGTAAACAAATTTTCCTAATCTTTCTGTTCAAGCGCCATCTAC | 1.09 |
| GATGATTGTTCTCCCAGCTGATGAATTCGTTATTTCGAGTAAACAAATTTTCCTAATCTTTCTGTTCAAGCGCCATCTAC | 3.66 |
| GATGATTGTTCTCCCAGCTGATGAATTTAAGACTTCGAGTAAACAAATTTTCCTAATCTTTCTGTTCAAGCGCCATCTAC | 0.399 |
| GATGATTGTTCTCCCAGCTGATGAATTGTGCTTCTCGAGTAAACAAATTTTCCTAATCTTTCTGTTCAAGCGCCATCTAC | 2.84 |
| GATGATTGTTCTCCCAGCTGATGAATTACCGCCTTCGAGTAAACAAATTTTCCTAATCTTTCTGTTCAAGCGCCATCTAC | 2.97 |
| GATGATTGTTCTCCCAGCTGATGAATTACTAGTTTCGAGTAAACAAATTTTCCTAATCTTTCTGTTCAAGCGCCATCTAC | 0.416 |
| GATGATTGTTCTCCCAGCTGATGAATTGCCTCCCTCGAGTAAACAAATTTTCCTAATCTTTCTGTTCAAGCGCCATCTAC | 0.938 |
| GATGATTGTTCTCCCAGCTGATGAATTTGCGTATTCGAGTAAACAAATTTTCCTAATCTTTCTGTTCAAGCGCCATCTAC | 4.16 |
| GATGATTGTTCTCCCAGCTGATGAATTTATCCATTCGAGTAAACAAATTTTCCTAATCTTTCTGTTCAAGCGCCATCTAC | 0.568 |
| GATGATTGTTCTCCCAGCTGATGAATTCAGTCAGTCGAGTAAACAAATTTTCCTAATCTTTCTGTTCAAGCGCCATCTAC | 0.273 |
| GATGATTGTTCTCCCAGCTGATGAATTCTATTACTCGAGTAAACAAATTTTCCTAATCTTTCTGTTCAAGCGCCATCTAC | 0.836 |
| GATGATTGTTCTCCCAGCTGATGAATTGCAAAAATCGAGTAAACAAATTTTCCTAATCTTTCTGTTCAAGCGCCATCTAC | 0.529 |
| GATGATTGTTCTCCCAGCTGATGAATTTTACCCCTCGAGTAAACAAATTTTCCTAATCTTTCTGTTCAAGCGCCATCTAC | 0.257 |
| GATGATTGTTCTCCCAGCTGATGAATTAACACAATCGAGTAAACAAATTTTCCTAATCTTTCTGTTCAAGCGCCATCTAC | 0.685 |
| GATGATTGTTCTCCCAGCTGATGAATTTCGGGGGTCGAGTAAACAAATTTTCCTAATCTTTCTGTTCAAGCGCCATCTAC | 0.472 |
| GATGATTGTTCTCCCAGCTGATGAATTGGGAGACTCGAGTAAACAAATTTTCCTAATCTTTCTGTTCAAGCGCCATCTAC | 0.449 |
| GATGATTGTTCTCCCAGCTGATGAATTTGTGCTATCGAGTAAACAAATTTTCCTAATCTTTCTGTTCAAGCGCCATCTAC | 2.26 |
| GATGATTGTTCTCCCAGCTGATGAATTGAAATTGTCGAGTAAACAAATTTTCCTAATCTTTCTGTTCAAGCGCCATCTAC | 0.511 |
| GATGATTGTTCTCCCAGCTGATGAATTCAAGTTATCGAGTAAACAAATTTTCCTAATCTTTCTGTTCAAGCGCCATCTAC | 0.534 |
| GATGATTGTTCTCCCAGCTGATGAATTTCCTCGCTCGAGTAAACAAATTTTCCTAATCTTTCTGTTCAAGCGCCATCTAC | 0.215 |
